Measured values: PubChem BioAssay AID1963576 (National Center for Advancing Translational Sciences (NCATS), 2024)
About 60 (0.1%) of roughly 46,000 compounds were called active. Not shown: some 3% with an inconclusive outcome. Calls come from the whole dose curve; as a rule, active = well fitted inhibition curve with a large enough effect; inconclusive = small, poorly fitted or top-dose-only effect; inactive = no such curve, though single readings can be large or run the other way. Some of the results follow.

Assay: Primary qHTS assay for Inhibitors of ovarian cancer metastasis using an organotypic tumor microenvironment (TME) model.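 For Potency: count of GFP cancer cells still attached after washing and fixation.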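 For activity change, negative = inhibition: plate controls were DMSO wells for no effect and tomatine positive control wells for full effect.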 Note: nearly all actives have a fitted effect of over 65% in size.
Settings: SKOV3ip1-GFP adhesion/invasion on 3D omental model, fluorescence; series mostly up to 45.8 µM; activity change, negative = inhibition: at the top concentration
How it was run: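 Primary human omental fibroblast/mesothelial 3D culture pre-formed 48 h. SKOV3ip1-GFP cells added with compounds (0.36-46 umol/L), incubated 2 h RT/16 h 37 C, fixed; GFP cells quantified at 488/509 nm.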
Potency is the fitted concentration of half-maximal effect.

Activity change, negative = inhibition, inactive:
CCCc1nn2cc(-c3ccc(C)c(C)c3)nc2s1 4.1%, CCc1nnc(SCC(=O)Nc2cccc(C(F)(F)F)c2)c2cc3oc(C)cc3n12 13.1%, O=C(COc1ccccc1)Nc1nnc(SCc2cc(=O)n3cc(Cl)ccc3n2)s1 1.84%, COc1ccc(CCNC(=O)CCS(=O)(=O)c2cc3c(cc2Cl)NC(=O)CO3)cc1OC 18.5%, Cc1ccc2onc(CNC(=O)NCc3ccccc3)c2c1 8.18%, CCC(C(=O)Nc1ccccc1OC)n1c(C(=O)OC)cc2sc(Cl)cc21 (stereo not given) -1.55%, Cc1oc(-c2ccccc2Cl)nc1CS(=O)(=O)CC(=O)NC(C)c1ccccc1 (stereo not given) 2.15%, CCOc1ccccc1CNC(=O)CSc1nnc(C)c2c(C)n(-c3ccccc3)nc12 -3.17%, CCOCCCNC(=O)c1ccc2c(=O)n(CCc3ccc(OC)c(OC)c3)c(=O)[nH]c2c1 2.66%, CC(=O)N1CCc2cc(S(=O)(=O)NC(CC(C)C)C(=O)NCCc3cccc(C)c3)ccc21 (stereo not given) -5.84%, COc1ccc(-c2cnnn2-c2ccc(NC(=O)c3ccccc3OC)cc2)cc1 -8.87%, COc1ccc(CCNC(=O)CN2C(=O)COc3ccc(S(=O)(=O)N4CCCC4)cc32)c(OC)c1 3.32%, COc1ccc(C2=C(N3CCN(c4cccc(C)c4C)CC3)c3ccccc3C2=O)cc1 3.46%, COc1ccc(-c2nc3sc(CCNC(=O)C(=O)Nc4cccc(NC(C)=O)c4)c(C)n3n2)cc1 10.9%, Cn1c(=O)n(Cc2c(F)cccc2Cl)c(=O)c2c1nc1n2CCN1c1ccc(F)cc1 3.05%, CCN(CC)CCCNC(=O)c1ccc(Cn2c(SCc3ccccc3)nc3cccnc32)cc1 -3.78%, CO[C@@H]1C(N(C)C(=O)c2ccccc2)C[C@H]2O[C@]1(C)n1c3ccccc3c3c4c(c5c6ccccc6n2c5c31)C(=O)NC4=O (stereo not given in full) -7.97%, COc1ccc(-c2cn3nc(N4CCCC(C(=O)NCc5ccc(Cl)cc5)C4)sc3n2)cc1 (stereo not given) 2.99%, Cc1ccc(CCNC(=O)C2CCCN(c3nnc(C)c4c(C)n(-c5ccccc5)nc34)C2)cc1 (stereo not given) 2.52%, COCCNC(=O)c1nn(-c2ccc(C)cc2)c(=O)c2c1c1ccccc1n2C 2.71%, CC1=C(C(=O)NCc2ccccc2F)C2(CCCCC2)OC1=O -7.42%, Cc1ccc(CSc2ncc(Cl)c(C(=O)Nc3nnc(C)s3)n2)cc1 -0.239%, CC1=C(c2ccc(F)cc2)S(=O)(=O)N=C1N1CCC(C(=O)NCCc2cccc(C)c2)CC1 -3.18%, O=C(Nc1ccccc1Cl)N1CCC(CN2CCCC2)CC1 6.66%, Cc1ccc(NC(=O)CN2C(=O)c3cccnc3Oc3ccc(Cl)cc32)cc1 0.866%, COc1cc2ncc3c(-c4ccc(C)cc4)nn(-c4ccc(F)cc4F)c3c2cc1OC 2.63%, COc1ccc(Cn2ccnc2SCC(=O)Nc2nc3ccccc3s2)cc1 0.533%, Cc1ccccc1OCCSc1nc2ccc(NC(=O)c3cccc(F)c3)cc2s1 9.24%, O=C(NCc1ccc2c(c1)CCN2C(=O)c1ccccc1)Nc1cccc(C(F)(F)F)c1 -4.45%, COc1ccc(NC(=O)c2cc3c(s2)-c2c(C)cccc2OC3)cc1Cl 20.4%, Cc1ccn2c(Nc3ccc4c(c3)OCCO4)c(-c3ccc(C)o3)nc2c1 3.9%, Cc1c(C(=O)NCc2ccccc2Cl)sc2ncnc(N(C)C3CCCCC3)c12 -1.8%, CC(=O)c1ccc(NC(=O)c2ccc3c(c2)N(Cc2cccc(Cl)c2)C(=O)c2ccccc2S3=O)cc1 (stereo not given) -1.8%, Cc1ccccc1-c1nc(CN2CCC(C(=O)NCc3ccc(F)cc3)CC2)c(C)o1 -0.0814%, CCOC(=O)c1c(C)n(-c2ccccc2)c2ccc(OC(=O)COc3ccc(Cl)cc3)cc12 -5.42%, O=C(NCc1ccccc1)c1ccc(NC(=O)N2CC3CCCN3c3ccccc32)cc1 (stereo not given) -1.07%, Cn1c(=O)oc2cc(S(=O)(=O)CCC(=O)N3CCN(c4cccc(Cl)c4)CC3)ccc21 7.31%, CCNC(=O)C1CCN(S(=O)(=O)c2ccc3c(c2)CCCN3C(C)=O)CC1 0.367%, Cc1ccc2c(c1)c1c(c(=O)n(-c3ccccc3)c(=O)n1CC(=O)NCC1CCCO1)n2C (stereo not given) 8.12%, Cc1nc2ccccn2c(=O)c1NC(=O)c1ccc(F)c(F)c1 -2.9%, Cc1cccc(NC(=O)C2CCCN2S(=O)(=O)c2ccc3nc(-c4ccccc4)[nH]c3c2)c1 (stereo not given) -6.67%, COc1cc(Cl)c(NC(=O)c2cc3ccccn3n2)c(OC)c1 23.9%, Cc1ccc(C)c(N2CCN(S(=O)(=O)c3cc(C(=O)Nc4ccc(Oc5ccccc5)cc4)ccc3F)CC2)c1 -6.83%, COc1ccc(Br)cc1CNC(=O)c1cnc2sc(N3CCC(C)CC3)nn2c1=O -6.67%, CCCCNC(=O)CCCCCn1c(=O)[nH]c2ccccc2c1=O -14.4%, CCc1ccc(NC(=O)CN2C(=O)c3cccc4cccc2c34)cc1 0.907%, Cc1ccc(S(=O)(=O)c2nnn3c2nc(NCc2ccc4c(c2)OCO4)c2sccc23)cc1C 6.42%, Cc1nn2c(=O)cc(COC(=O)c3ccc(NC(=O)COc4ccc(C)c(C)c4)cc3)nc2s1 -10.3%, O=c1n(Cc2ccccc2Cl)c2ccccc2c2nc(-c3ccccc3)nn12 5.68%, CCOc1ccc(C2CC(=O)Nc3nc(SCc4ccccc4C)[nH]c(=O)c32)cc1OC (stereo not given) -10.2%, COCCCNC(=O)Cn1cnc2sc(C)c(S(=O)(=O)N3CCC(C)CC3)c2c1=O -3.76%

Potency, active:
COc1ccc(/C=C/C(=O)Nc2ccc3nc4c(c(Nc5ccc(OC)c(OC)c5)c3c2)CCCC4)cc1 5.01 µM

outcome, inactive:
COc1ccc(-c2noc(CSc3nnc(Cc4ccccc4)n3-c3cccc(C)c3)n2)cc1, Cc1c(C(=O)NCc2cccc(Cl)c2)sc2nc3n(c(=O)c12)CCCC3, Cc1ccc(NC(=O)CC2Oc3ccccc3NC2=O)cc1C (stereo not given), Nc1nn(-c2ccccc2)nc1C(=O)OCc1ccc(Cl)cc1, COc1cccc(-c2nc(CS(=O)(=O)CC(=O)NCc3cccc(Cl)c3)c(C)o2)c1, Cc1cc(Nc2ccccc2C)n2nc(Cc3ccc(Cl)cc3)nc2n1, CCOc1cc(C(=O)Nc2ccc(-c3cn4cccnc4n3)cc2)cc(OCC)c1OCC, CC(C)NC(=O)c1ccc(Cn2c(SCC(N)=O)nc3ccccc3c2=O)cc1
